# Laboratory results as given in PubChem BioAssay AID686978 (National Center for Advancing Translational Sciences (NCATS), 2013).
# Where “and” joins values, the source holds several entries; their conditions need not be identical. Equal entries are not always repeated. About 64,000 (15%) of roughly 420,000 compounds were called active. Inconclusive means that the source gave no clear call. Such entries were picked first, then a sample of the others. The call rests on the fitted dose curve; in most records, active means well fitted inhibition curve with a large enough effect; inconclusive means small, poorly fitted or top-dose-only effect; inactive means flat fitted curve, though single readings scatter. Potencies of inconclusive entries are left out as doubtful fits.
# Experiment: qHTS for Inhibitors of human tyrosyl-DNA phosphodiesterase 1 (TDP1): qHTS in cells in absence of CPT; further: nearly all actives have a fitted effect of over 55% in size
# Conditions: DT40 Tdp1-/- hTDP1 cells, no CPT, ATP luminescence, 48 h; activity change, negative = growth inhibition: at 46.2 µM (top of the series) unless noted
# Summary of the method: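 Seeded 400 DT40-hTDP1 cells/well (vehicle DMSO, no 20 nM CPT); pinned compounds; ≥48 hr at 37 °C; CellTiter-Glo luminescence as viability measure.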
# On the % scale 0 is the no-effect control and ±100 the full control effect; potency means the concentration at half of the fitted maximal effect; tags describe the fitted curve by direction and shape.
SMILES,Potency,"activity change, negative = growth inhibition"
CCOC(=O)C1=C(COC(=O)CCOc2ccccc2)NC(=O)NC1C (stereo unspecified),active: 23.1 µM,
CCOC(=O)c1c(NC(=O)c2cc(-c3ccc(OC)c(OC)c3)on2)sc2c1CCCC2,inactive,
CCCCCCCN(c1ccccc1)[C@@H]1C[C@H]2CCCC(=O)N3CC[C@@H](C1)[C@@H]23,active: 10.3 µM,
Cc1ccc(-c2cc(-c3ccccc3Cl)c(C#N)c(N)n2)o1,"inconclusive [inhibitor, single point]",
COc1cccc(CNC(=O)CNC(=S)N(Cc2ccccc2)Cc2ccccc2F)c1,"inconclusive [inhibitor, single point]",
CNC(=O)CC1C(=O)N(c2ccc(F)cc2)C(=S)N1NC(=O)c1ccc(Br)cc1 (stereo unspecified),inactive,
O=C(Nc1ccc(F)cc1)C1CCCN(C2=NS(=O)(=O)c3ccccc32)C1 (stereo unspecified),inactive,
COc1ccc2c(c1)[N+](C)(C)C(C)(C)C=C2C,"inconclusive [inhibitor, single point]",
CCCCN1CCCCC1(C)C(=O)NCc1cccc(OC)c1 (stereo unspecified),"inconclusive [inhibitor, single point]",
CC1=NOC(=O)/C1=C/c1ccc(O)c(Br)c1,"inconclusive [inhibitor, partial curve]",
COC(=O)CC1Oc2ccccc2-n2cc(-c3ccc(F)cc3)nc21 (stereo unspecified),active: 8.2 µM,
COc1cc(C(c2c(C)[nH][nH]c2=O)c2c(C)[nH][nH]c2=O)ccc1OC(=O)c1ccccc1OC,"inconclusive [inhibitor, single point]",
C/C(=N\NC(=O)c1ccc(N2CCCC2=O)cc1)c1ccncc1,inactive,
CCS(=O)(=O)N1CCC(C(=O)c2ccc(Cl)cc2)CC1,"inconclusive [inhibitor, single point]",
COc1cccc2c(N/N=C/c3ccco3)cc(C)nc12,inactive,
COc1ccc(C2C(=O)N(C3CCCCC3)CC(=O)N2CC2COc3ccccc3O2)cc1 (stereo unspecified),,inconclusive: -32.7% [inhibitor]
COc1ccccc1CN(C)C(=O)COC(=O)c1cc(C)oc1C,"inconclusive [inhibitor, single point]",
CSCCC(NC(=O)c1ccccc1Br)C(=O)N1CCN(C(C)=O)CC1 (stereo unspecified),inactive,
O=C1CC(Sc2ncccn2)C(=O)N1c1ccccc1C(F)(F)F (stereo unspecified),"inconclusive [inhibitor, single point]",
O=C1c2cccc3cccc(c23)C(=O)N1CC1CCN(S(=O)(=O)c2ccccc2)CC1,inactive,
COc1ccc(Nc2nn3c(=O)c4cc5c(cc4nc3s2)OCO5)c(OC)c1,"inconclusive [inhibitor, single point]",
CCOc1ccc2nc(NC(=O)c3cccc(-c4cc5ccccc5oc4=O)c3)sc2c1,active: 23.1 µM,
O=c1[nH]c(CN2CCN(c3ccc(O)cc3)CC2)nc2scc(-c3ccc(Cl)cc3)c12,active: 4.61 µM,
Cc1c(NC(=O)N(C)c2ccccc2)c(=O)n(-c2ccccc2)n1C,inactive,

SMILES,Potency,"activity change, negative = growth inhibition"
CN(C)CCNCc1ccc(OC2CCCC2)cc1,"inconclusive [inhibitor, single point]",
CCOC(=O)C1OC2(CCCC2)OC1C(=O)OCC (stereo unspecified),inactive,
CCC(=O)NC1OC(CO)C(O)C(O)C1O (stereo unspecified),"inconclusive [inhibitor, full curve]",
Cc1ccc(N2CC(C(=O)Nc3nnc(SCC(N)=O)s3)CC2=O)cc1C (stereo unspecified),inactive,
CC(C)(C)CC(=O)Nc1nnc(SCC(=O)NCc2cccs2)s1,inactive,
CCn1c(=O)c2sccc2n2c(CCCC(=O)N3CCN(c4ccccn4)CC3)nnc12,"inconclusive [inhibitor, partial curve]",
COC(=O)CN1C(=O)C(O)(CC(=O)c2ccc(C)o2)c2ccccc21 (stereo unspecified),"inconclusive [inhibitor, single point]",
O=C1OC(c2cc(Br)c(O)c(Br)c2)c2ccccc21 (stereo unspecified),"inconclusive [inhibitor, partial curve]",
O=C1N=C(N2CCOCC2)S/C1=C/c1ccc(-c2ccc(F)cc2)o1,active: 20.6 µM,
CC(NS(=O)(=O)c1ccc2c(c1)c(=O)n(C)c(=O)n2C)C(=O)NC1CCCCC1 (stereo unspecified),inactive,
COc1ccc(CN2CCC[C@]3(N[C@H](c4ccc(C(F)(F)F)cc4)[C@@H]4C(=O)N(C)C(=O)[C@@H]43)C2=O)cc1,"inconclusive [inhibitor, single point]",
Cc1ccc(C(O)c2ncc(-c3cccc(C(F)(F)F)c3)[nH]2)cc1 (stereo unspecified),active: 18.4 µM,
CCN1CCCC1Cn1cnc2c([nH]c3cc(OC)ccc32)c1=O (stereo unspecified),inactive,
CC(C)Cn1c(-c2ccc(Cl)cc2)cnc1SCC(=O)N1CCOCC1,"inconclusive [inhibitor, partial curve]",
CCOc1ccc(C(=O)NC(=S)NCc2cccnc2)cc1[N+](=O)[O-],"inconclusive [inhibitor, single point]",
CN1CCc2cc3c(c4c2C1CC41CCC(=NO)CC1)OCO3 (stereo unspecified),inactive,
COc1ccccc1-c1csc(C(O)c2ccc(F)cc2)n1 (stereo unspecified),"inconclusive [inhibitor, single point]",
Cc1ccc(S(=O)(=O)N2C[C@H]3N(C(=O)OC(C)C)N(C(=O)OC(C)C)C[C@H](OC(=O)NCc4ccccc4F)[C@@]3(O)C2)cc1,active: 23.1 µM,
CC(=O)NC1=NN(C(C)=O)C(C)(c2ccc(Br)cc2)S1 (stereo unspecified),"inconclusive [inhibitor, partial curve]",
COc1ccccc1NC(=O)N(C)C[C@H]1Oc2ncc(Br)cc2C(=O)N([C@H](C)CO)C[C@H]1C,,inconclusive: -21.9% [inhibitor]
CCc1ccc(C2c3c(-c4ccccc4O)n[nH]c3C(=O)N2Cc2cccnc2)cc1 (stereo unspecified),"inconclusive [inhibitor, single point]",
COc1cc(Cl)c(C)cc1NC(=O)c1ccccc1NC(=O)CN1CCN(C(C)=O)CC1,"inconclusive [inhibitor, single point]",
CCOc1ccc(C(C)NC(=S)NC2CCCCC2)cc1 (stereo unspecified),"inconclusive [inhibitor, single point]",
COc1cc(C(=O)NCC(c2ccc(F)cc2)N2CCOCC2)ccc1OCc1ccccc1Cl (stereo unspecified),"inconclusive [inhibitor, single point]",

SMILES,Potency,"activity change, negative = growth inhibition"
CCCCN(C)CCC(=O)Nc1ccc(OC)cc1OC,inactive,
Cc1cc([N+](=O)[O-])ccc1-c1ccc(/C=N/NC(=O)c2ccc(Br)o2)o1,"inconclusive [inhibitor, single point]",
COc1ccccc1CCC(=O)N(CCC1=CCCCC1)c1c(N)n(Cc2ccccc2)c(=O)[nH]c1=O,"inconclusive [inhibitor, single point]",
COC(=O)/C=C1/SC(=NC(=O)c2ccccc2)NC1=O,active: 20.6 µM,
COc1ccc(CCNS(=O)(=O)c2ccc(Cl)cc2)cc1OC,inactive,
NS(=O)(=O)c1ccc(N2C(=O)C(=O)/C(=C(/O)c3ccccc3)C2c2ccc(Cl)cc2)cc1 (stereo unspecified),inactive,
COc1ccc([C@@H]2C[C@H](c3ccccc3)Oc3cc(OC)c(OC)c(OC)c32)cc1,"inconclusive [inhibitor, single point]",
CCN1CCN(c2ncc3c(n2)CCN(Cc2ccccc2C)C3)CC1,"inconclusive [inhibitor, single point]",
COc1ccc(N(CC(=O)Nc2cccnc2)S(=O)(=O)c2ccccc2)cc1Cl,"inconclusive [inhibitor, single point]",
O=C(Cn1nnc(-c2ccccc2)n1)N/N=C/c1cccc([N+](=O)[O-])c1O,active: 20.6 µM,
COC(=O)c1ccccc1S(=O)(=O)N(Cc1ccco1)Cc1cc2cc(OC)ccc2[nH]c1=O,active: 18.4 µM,
COc1ccc(C)c2sc(N(CCN(C)C)C(=O)c3cccc(N4C(=O)CCC4=O)c3)nc12,inactive,
COc1ccc(CCN(Cc2nc(-c3ccccc3)no2)Cc2nc(-c3ccccc3)no2)cc1OC,"inconclusive [inhibitor, partial curve]",
CCOC(=O)c1cnc2c(-c3ccccc3)c(-c3ccccc3)nn2c1C,"inconclusive [inhibitor, single point]",
CC(C)CN(C(=O)CN1CCN(S(=O)(=O)c2ccccc2)CC1)c1c(N)n(CC(C)C)c(=O)[nH]c1=O,inactive,
Cc1ccc(CS(=O)(=O)c2ncc(Cl)c(C(=O)Nc3nnc(C(C)C)s3)n2)cc1,active: 5.17 µM and active: 11.6 µM,
COCC1CCCCN1Cc1cn[nH]c1-c1ccc2cc(OC)ccc2c1 (stereo unspecified),"inconclusive [inhibitor, single point]",
CCCNC(=O)C1(C)CCCN(C(=O)/C=C/c2ccccc2)C1 (stereo unspecified),inactive,
Cc1cc(C(=O)NC2CC(C)(C)Cc3c2cnn3-c2ccc(F)cc2)no1 (stereo unspecified),"inconclusive [inhibitor, single point]",
CC(C)CCNC(=O)C1CCN(C(=O)c2cc3sccc3n2Cc2ccc(Cl)cc2)CC1,active: 9.2 µM,
CN(CC(=O)NC1CCN(Cc2ccccc2)CC1)S(=O)(=O)c1ccc(Cl)cc1,"inconclusive [inhibitor, single point]",
COc1cc(C(=O)NNC(=O)c2ccc(NC(C)=O)cc2)cc(OC)c1OC,inactive,
CCc1ccc(-n2nc(CO)c(C(=O)NC)n2)cc1,"inconclusive [inhibitor, partial curve]",
